Data on 45 compounds can be found in paper PMC4336329 (PLoS ONE, 2015).

Molecules are shown by their SMILES. About 2,200 (0.71%) of roughly 310,000 compounds showed an effect of 50% or more. Effects have a minus sign here. The list shows a part of the results.

Sequence of human ether-à-go-go-related gene (hERG) potassium channel (Q12809 whole entry, looked up): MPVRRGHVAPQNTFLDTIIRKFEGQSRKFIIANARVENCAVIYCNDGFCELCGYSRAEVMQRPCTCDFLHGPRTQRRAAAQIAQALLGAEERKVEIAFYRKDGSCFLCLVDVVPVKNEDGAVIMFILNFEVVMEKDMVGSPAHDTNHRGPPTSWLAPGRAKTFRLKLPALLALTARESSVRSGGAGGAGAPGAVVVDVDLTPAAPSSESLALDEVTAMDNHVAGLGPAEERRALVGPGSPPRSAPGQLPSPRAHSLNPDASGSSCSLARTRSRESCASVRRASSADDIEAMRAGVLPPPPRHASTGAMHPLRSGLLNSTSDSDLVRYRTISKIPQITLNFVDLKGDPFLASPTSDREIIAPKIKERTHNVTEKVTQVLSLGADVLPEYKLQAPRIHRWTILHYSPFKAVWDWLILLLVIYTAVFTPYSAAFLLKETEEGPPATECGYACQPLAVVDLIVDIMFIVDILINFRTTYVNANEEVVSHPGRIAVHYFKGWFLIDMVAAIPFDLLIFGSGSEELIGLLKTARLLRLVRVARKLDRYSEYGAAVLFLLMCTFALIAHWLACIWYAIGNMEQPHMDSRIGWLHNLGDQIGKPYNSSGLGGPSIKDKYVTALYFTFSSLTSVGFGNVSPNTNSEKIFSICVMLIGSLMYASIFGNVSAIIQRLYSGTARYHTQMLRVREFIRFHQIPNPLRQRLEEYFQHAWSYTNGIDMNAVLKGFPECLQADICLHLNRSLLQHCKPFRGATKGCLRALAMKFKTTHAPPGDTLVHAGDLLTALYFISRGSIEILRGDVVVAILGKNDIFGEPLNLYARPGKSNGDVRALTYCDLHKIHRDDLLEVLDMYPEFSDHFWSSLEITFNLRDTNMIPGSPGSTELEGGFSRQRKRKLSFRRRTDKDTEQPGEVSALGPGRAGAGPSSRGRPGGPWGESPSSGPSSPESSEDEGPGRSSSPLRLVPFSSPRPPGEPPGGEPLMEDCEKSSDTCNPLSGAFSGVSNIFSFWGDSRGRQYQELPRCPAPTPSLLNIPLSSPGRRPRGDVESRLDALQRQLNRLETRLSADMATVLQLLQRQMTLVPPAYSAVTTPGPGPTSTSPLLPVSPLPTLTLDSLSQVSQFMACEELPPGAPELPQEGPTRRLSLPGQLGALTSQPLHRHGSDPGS

The experiment addresses human ether-à-go-go-related gene (hERG) potassium channel (human, UniProt Q12809). As to the kind of experiment: primary screen, population patch clamp on CHO cells stably expressing hERG.
Take `N#Cc1c(-c2cccnc2)c2c([nH]c1=O)-c1ccccc1OC2`: the “hERG current change (%, negative = inhibition) at 1uM” value is on record as 11.5%.

As to `CCCCNC(=O)N1CCc2[nH]c3ccccc3c2C1`, the “hERG current change (%, negative = inhibition) at 1uM” value is 11.1%.

As for `CCN(CC)CCOc1c(Br)ccc2c1sc1nc3n(c(=O)c12)CCC3`, the “hERG current change (%, negative = inhibition) at 1uM” value was -1.07%.

For `CC1CCCCN1CC(O)COCc1ccc(Cl)cc1` (stereo not drawn), the “hERG current change (%, negative = inhibition) at 1uM” value was determined as 0.875%.

On to `C#CCn1c(S(=O)(=O)Cc2ccccc2Cl)nc(-c2ccccc2)c1-c1ccccc1`, for which the “hERG current change (%, negative = inhibition) at 1uM” value worked out at 0.448%.

Regarding `OCCC1CN(C2CCN(c3ccccc3F)CC2)CCN1Cc1ccccc1` (stereo not drawn), the “hERG current change (%, negative = inhibition) at 1uM” value was -1.66%.

With `COc1ccc(CN(C)C(=O)c2ccccc2OCc2c(C)noc2C)c(OC)c1`, the “hERG current change (%, negative = inhibition) at 1uM” value amounted to 5.14%.

Regarding `CCOC(=O)/C=C1\CN(Cc2ccc(OC)cc2)S(=O)(=O)c2ccccc21`, the “hERG current change (%, negative = inhibition) at 1uM” value worked out at 12.7%.

`Cc1cc(C)cc(NC(=O)C2CCCN(S(=O)(=O)c3cnc[nH]3)C2)c1` (stereo not drawn): the “hERG current change (%, negative = inhibition) at 1uM” value turned out to be 0.609%.

In the case of `O=C([O-])/C=C/C(O)c1ccc(Cl)cc1.[Na+]` (stereo not drawn), the “hERG current change (%, negative = inhibition) at 1uM” value is 6.54%.

Turning to `Cc1ccc(-c2nc(CC(=O)Nc3cccc(S(=O)(=O)NC4=NCCC4)c3)cs2)cc1`, the “hERG current change (%, negative = inhibition) at 1uM” value is listed as 13%.

For the compound `CC1(C)c2[nH]c3ccccc3c2C[C@@H]2C(=O)N(Cc3ccc(F)cc3)C(=O)N21`, the “hERG current change (%, negative = inhibition) at 1uM” value turned out to be 7.65%.

With `Cc1cc(C#N)c2ccccc2n1`, the “hERG current change (%, negative = inhibition) at 1uM” value was 12.6%.

With `Cc1cc(C)nc(NC(=O)c2ccc(C)o2)n1`, the “hERG current change (%, negative = inhibition) at 1uM” value turned out to be 15.3%.

In the case of `COc1cc(C(=O)N2CCCCCCC2)ccc1OC1CCN(C(C)=O)CC1`, the “hERG current change (%, negative = inhibition) at 1uM” value is on record as 5.09%.

On to `O=C1NC2NC(=O)N([N+](=O)[O-])C2N1` (stereo not drawn), for which the “hERG current change (%, negative = inhibition) at 1uM” value is on record as 15.4%.

As to `CCN(CC)c1ccc(/C=C/c2cc(-c3ccccc3)c3ccccc3n2)cc1`, the “hERG current change (%, negative = inhibition) at 1uM” value was 5.82%.

Consider `Cc1ccc(NC(=O)NCCc2ccc(S(N)(=O)=O)cc2)cc1`, for which the “hERG current change (%, negative = inhibition) at 1uM” value is on record as 14.5%.

With `COc1cc(CCC(=O)N2CCN(c3ccc(N4CCOCC4)nn3)CC2)cc(OC)c1OC`, the “hERG current change (%, negative = inhibition) at 1uM” value was determined as 0.489%.

Take `CCCCOC(=O)CSc1nc(N)c(C#N)c(-c2ccc(OCC)cc2)c1C#N`: the “hERG current change (%, negative = inhibition) at 1uM” value worked out at 14%.

As to `CCOC(=O)Cn1nnc(-c2ccc(OCC(C)C)cc2)n1`, the “hERG current change (%, negative = inhibition) at 1uM” value amounted to 10.5%.

Turning to `CCOc1cc(CNc2ccc3c(c2)OCCO3)cc(Br)c1OCC(N)=O`, the “hERG current change (%, negative = inhibition) at 1uM” value worked out at 1.92%.

For `CCc1nnc(NC(=O)c2cc(-c3ccccc3)nn2-c2ccccc2)s1`, the “hERG current change (%, negative = inhibition) at 1uM” value was 7.49%.

`N#CC1=C2SCN(Cc3ccco3)CN2C(=O)CC1c1ccc(Cl)cc1` (stereo not drawn): the “hERG current change (%, negative = inhibition) at 1uM” value was 14.5%.

For the compound `O=C(O)c1ccc2c(c1Sc1ccccc1)C(=O)c1ccccc1C2=O`, the “hERG current change (%, negative = inhibition) at 1uM” value is on record as 12%.

Turning to `CCc1ccc(NC(=O)CCn2nc(C)c(S(=O)(=O)N3CCCCC3)c2C)cc1`, the “hERG current change (%, negative = inhibition) at 1uM” value stood at 4.67%.

As to `CCc1ccccc1NC(=O)N1C[C@H]2C[C@@H](C1)c1cccc(=O)n1C2`, the “hERG current change (%, negative = inhibition) at 1uM” value came to 8.75%.

For the compound `COc1cc2c(cc1OC)CN(C(=O)c1sccc1C)CC2`, the “hERG current change (%, negative = inhibition) at 1uM” value is recorded as 8.88%.

For the compound `O=C(CSc1nc(-c2ccccc2)nc2c1CCCC2)N1CCOCC1`, the “hERG current change (%, negative = inhibition) at 1uM” value is reported as 0.955%.

With `O=C(NCCc1ccccc1Cl)c1ccc2nc3ccccc3c(=O)n2c1`, the “hERG current change (%, negative = inhibition) at 1uM” value is on record as 10.5%.

With `O=C(Nc1nnc(C2=COCCO2)o1)c1ccc(F)cc1`, the “hERG current change (%, negative = inhibition) at 1uM” value amounted to 13.8%.

Take `CCCN1CCN(CCNC(=O)Nc2cc(C)ccc2C)CC1`: the “hERG current change (%, negative = inhibition) at 1uM” value is listed as -11.4%.

Regarding `Nc1nonc1-n1nnc(C(=O)N/N=C/c2ccc(OCc3ccccc3)cc2)c1COc1ccc(F)cc1`, the “hERG current change (%, negative = inhibition) at 1uM” value worked out at 3.94%.

Take `COc1ccc(C)c2sc(N(CCCN(C)C)C(=O)c3ccc(S(=O)(=O)N(C)C)cc3)nc12.Cl`: the “hERG current change (%, negative = inhibition) at 1uM” value was -17.9%.

With `CN(CC(=O)Nc1cccc(F)c1)CC(=O)Nc1cccc([N+](=O)[O-])c1`, the “hERG current change (%, negative = inhibition) at 1uM” value is -10.4%.

Turning to `C=C1c2ccccc2NC(=O)N1c1ccc(OC)cc1`, the “hERG current change (%, negative = inhibition) at 1uM” value is listed as 8.84%.

For `COc1ccc(C2CC(C(F)(F)F)n3nc(C(=O)NCc4c(C)nn(C)c4C)c(Cl)c3N2)cc1` (stereo not drawn), the “hERG current change (%, negative = inhibition) at 1uM” value stood at 2.89%.

As to `COc1ccc(CC2C(=O)OC(C)(C)OC2=O)cc1`, the “hERG current change (%, negative = inhibition) at 1uM” value worked out at 3.77%.

Regarding `Cc1ccc(NC(=O)CN(C)C(=O)c2ccc(OCc3cn4ccccc4n3)cc2)cc1`, the “hERG current change (%, negative = inhibition) at 1uM” value was 6.52%.

As to `COc1cc2c(cc1OC)C(CSc1ccccc1C(=O)O)=NC(C)(C)C2`, the “hERG current change (%, negative = inhibition) at 1uM” value worked out at 15.2%.

Regarding `COC(=O)c1ccc2nc(C)cc(Nc3ccc(N(C)C)cc3)c2c1.Cl`, the “hERG current change (%, negative = inhibition) at 1uM” value is on record as -23.5%.

In the case of `N#Cc1c(-c2ccc(Cl)cc2)cc(-c2cccs2)nc1SCC(=O)O`, the “hERG current change (%, negative = inhibition) at 1uM” value came out at 11.2%.

For the compound `CC1CCc2sc(C(=O)NN=C3CCC(c4ccccc4)CC3)cc2C1` (stereo not drawn), the “hERG current change (%, negative = inhibition) at 1uM” value was found to be 1.71%.

Take `O=S(=O)(c1cccs1)N1CCC(CO)(Cc2ccc(Cl)cc2)CC1`: the “hERG current change (%, negative = inhibition) at 1uM” value was determined as 13.4%.

With `Cc1nc(NC(=O)c2ccco2)sc1C(=O)Nc1ccc(Br)cc1`, the “hERG current change (%, negative = inhibition) at 1uM” value is 4.19%.
